Assay results reported in PMC10385824, “Antiproliferative and Tubulin-Destabilising Effects of 3-(Prop-1-en-2-yl)azetidin-2-Ones and Related Compounds in MCF-7 and MDA-MB-231 Breast Cancer Cells” (Pharmaceuticals, 2023).

How the values were obtained:
[1] = tested on: SW-480 colon adenocarcinoma cell line; experiment: cell viability assay; type: cell-based; details: Homo sapiens, SW480
Description: (§1) Cells were grown in 96-well plates and treated with (A) CA-4 or (B) β-lactam compound 9q at 0.001–50 μM for 72 h. Cell viability was expressed as a percentage of vehicle control (ethanol 1% (v/v))-treated cells. The values represent the mean ± S.E.M. for three independent experiments performed in triplicate.
(§2) HL-60 cells were originally obtained from the ECACC.

[2] = tested on: HT-29 human colorectal adenocarcinoma cell line; experiment: cell viability assay; type: cell-based; details: HT-29, 72 h
Description: as §1, §2

[3] = tested on: HL-60 human leukaemia cell line; experiment: cell viability assay; type: cell-based
Description: as §1, §2

[4] = HPLC stability under degradation conditions (acid, alkali, heat, light, oxidation); details: 4 h

Q: For `C=C(C)C1C(=O)N(c2cc(OC)c(OC)c(OC)c2)C1c1ccc(OC)c(O)c1` (centres unmarked) [9q, 4-(3-Hydroxy-4-methoxyphenyl)-1-(3,4,5-trimethoxyphenyl)-3-(prop-1-en-2-yl)azetidin-2-one], which IC50 [1] is on record?
A: Its IC50 is 8 nM.

Q: What about the IC50 [2] of the same compound?
A: Its IC50 is 711 nM.

Q: What about the IC50 [3] of the same compound?
A: Its IC50 is 15 nM.

Q: What does the source list for `C=CCC1C(=O)N(c2cc(OC)c(OC)c(OC)c2)C1c1ccc(OC)c(O)c1` (centres unmarked) [10p, 4-(3-Hydroxy-4-methoxyphenyl)-1-(3,4,5-trimethoxyphenyl)-3-allylazetidin-2-one]?
A: compound remaining ([4]; UV light): 100%; compound remaining ([4]; acidic (0.1 M HCl)): 91%; compound remaining ([4]; alkaline (0.1M NaOH)): 95%; compound remaining ([4]; heat (60 °C)): 100%; compound remaining ([4]; oxidative (3% H2O2)): 79%
